This passage reports AQP5-HiBiT luminescence results from the supplement of paper PMC8821664.

Where a name gives a salt, the structure may show the parent alone. The list shows a part of the results. Repeats are few or missing, and single values can be far off.
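Also: monoclonal Beas-2B line stably carrying CMV promoter-driven AQP5-HiBiT, 5,000 cells per well in 384-well plates, lytic HiBiT plus LgBiT NanoLuc luminescence, FDA-approved drug library screen.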

The assay has as its system Beas-2B AQP5-HiBiT reporter cells. The assay can be described thus: AQP5-HiBiT luminescence relative to vehicle (ratio to vehicle); higher = higher AQP5-HiBiT protein abundance. Conditions: 10 µM; 18 h.
Consider `N#Cc1ccccc1-c1cc(-c2ccccn2)cn(-c2ccccc2)c1=O` [PeraMpanel], for which the AQP5-HiBiT luminescence came to 0.478.

Consider `[O-][n+]1ccccc1[S-].[O-][n+]1ccccc1[S-].[Zn+2]` [Zinc pyrithione], for which the AQP5-HiBiT luminescence came out at 52.4. Consider `CN1C[C@H](C(=O)N[C@]2(C)O[C@@]3(O)[C@@H]4CCCN4C(=O)[C@H](Cc4ccccc4)N3C2=O)C[C@@H]2c3cccc4[nH]cc(c34)C[C@H]21` [Dihydroergotamine Mesylate], for which the AQP5-HiBiT luminescence was 1.2. The figure for `O=C(O[C@H]1C[C@H]2CC[C@@H](C1)[N+]21CCCC1)C(O)(c1ccccc1)c1ccccc1` [Trospium chloride] is 0.956. In the case of `Cc1ccc(-c2nc3ccc(C)cn3c2CC(=O)N(C)C)cc1` [Zolpidem] it was 0.764; in that of `Cc1ccc(-n2nccn2)c(C(=O)N2CCN(c3nc4cc(Cl)ccc4o3)CC[C@H]2C)c1` [MK-4305 (Suvorexant)], 0.627. As to `Cc1cccc([C@H](C)c2c[nH]cn2)c1C` [Dexmedetomidine], the AQP5-HiBiT luminescence is 0.579. `CN1[C@@H]2C[C@@H](OC(=O)[C@H](CO)c3ccccc3)C[C@H]1[C@@H]1O[C@@H]12` [Scopolamine HBr trihydrate]: the AQP5-HiBiT luminescence stood at 0.921. As for `COc1ccc(CN(C(=O)[C@@H](N)Cc2c(C)cc(C(N)=O)cc2C)[C@@H](C)c2ncc(-c3ccccc3)[nH]2)cc1C(=O)O` [Eluxadoline], the AQP5-HiBiT luminescence amounted to 0.858. `CC(O)(CS(=O)(=O)c1ccc(F)cc1)C(=O)Nc1ccc(C#N)c(C(F)(F)F)c1` (stereo not drawn) [Bicalutamide]: the AQP5-HiBiT luminescence turned out to be 0.855. In the case of `CN1[C@@H]2C[C@@H](OC(=O)[C@H](CO)c3ccccc3)C[C@H]1[C@@H]1O[C@@H]12` [Scopolamine HBr], the AQP5-HiBiT luminescence is 0.949. On to `COc1ccc(C(CN(C)C)C2(O)CCCCC2)cc1` (stereo not drawn) [Venlafaxine hydrochloride], for which the AQP5-HiBiT luminescence was 0.773. The figure for `CCC1(c2ccc(N)cc2)CCC(=O)NC1=O` (stereo not drawn) [Aminoglutethimide] is 0.917; for `C[C@]12CC[C@H]3[C@@H](CCC4=CC(=O)CC[C@@]43C)[C@@H]1CC[C@@H]2O` [Testosterone] it is 0.597. With `C[C@]12CCC(=O)C=C1CC[C@@H]1[C@@H]2CC[C@@]2(C)[C@H]1CC[C@]2(C)O` [17-Methyltestosterone], the AQP5-HiBiT luminescence worked out at 1.01. The figure for `CN(C)C(=O)Oc1ccc[n+](C)c1` [Mestinon] is 0.998; for `CCOC(=O)CC(SP(=S)(OC)OC)C(=O)OCC` (stereo not drawn) [Malathion] it is 0.736.

Take `CCC(=O)O[C@H]1CC[C@H]2[C@@H]3CCC4=CC(=O)CC[C@]4(C)[C@H]3CC[C@]12C` [Testosterone propionate]: the AQP5-HiBiT luminescence was found to be 0.969. The figure for `NC(=O)C[S+]([O-])C(c1ccccc1)c1ccccc1` (stereo not drawn) [Modafinil] is 0.775; for `NC(=O)C[S@@+]([O-])C(c1ccccc1)c1ccccc1` [Armodafinil] it is 1.08; for `C[N+](C)(C)CCCCCCCCCC[N+](C)(C)C` [Decamethonium bromide] it is 0.923. The figure for `CCCC(C)(COC(N)=O)COC(=O)NC(C)C` (stereo not drawn) [Carisoprodol] is 0.949; for `CC(C)N(CCC(C(N)=O)(c1ccccc1)c1ccccn1)C(C)C` (stereo not drawn) [Disopyramide] it is 1.07. In the case of `N.N.[Cl][Pt][Cl]` [Cisplatin] it was 1.23; in that of `CCN(C)C(=O)Oc1cccc([C@H](C)N(C)C)c1` [Rivastigmine tartrate], 1.01.

Turning to `CC(C)C[C@H](CN)CC(=O)O` [Pregabalin], the AQP5-HiBiT luminescence came out at 1.06.

As for `O=C1CC[C@@]2(O)[C@H]3Cc4ccc(O)c5c4[C@@]2(CCN3CC2CC2)[C@H]1O5` [Naltrexone hydrochloride], the AQP5-HiBiT luminescence is 1.06. In the case of `NCC(CC(=O)O)c1ccc(Cl)cc1` (stereo not drawn) [Baclofen], the AQP5-HiBiT luminescence worked out at 0.83. In the case of `COC[C@@H](NC(C)=O)C(=O)NCc1ccccc1` [Lacosamide] it was 0.581; in that of `C[N+]12CCC(CC1)C(OC(=O)C(O)(c1ccccc1)c1ccccc1)C2` (stereo not drawn) [Clidinium bromide], 0.969; in that of `C[C@]12CC[C@H]3[C@@H](CC[C@@]45O[C@@H]4C(O)=C(C#N)C[C@]35C)[C@@H]1CC[C@@H]2O` [Trilostane], 0.803.

For `CN(C)C(=O)Oc1cccc([N+](C)(C)C)c1` [Neostigmine bromide], the AQP5-HiBiT luminescence stood at 1.18. In the case of `C=C1CC[C@@]2(O)[C@H]3Cc4ccc(O)c5c4[C@@]2(CCN3CC2CC2)[C@H]1O5` [Nalmefene hydrochloride] it was 0.877; in that of `C[C@]12COC(=O)C[C@@H]1CC[C@@H]1[C@@H]2CC[C@@]2(C)[C@H]1CC[C@]2(C)O` [Oxandrolone], 0.619; in that of `C[C@]12Cc3c[nH]nc3C[C@@H]1CC[C@@H]1[C@@H]2CC[C@@]2(C)[C@H]1CC[C@]2(C)O` [Stanozolol], 0.8. For the compound `COc1cc([C@@H]2c3cc4c(cc3[C@H](O)[C@H]3COC(=O)[C@H]23)OCO4)cc(OC)c1OC` [Podophyllotoxin], the AQP5-HiBiT luminescence is 2.88. On to `CN1[C@@H]2CC[C@H]1C[C@@H](OC(=O)C(CO)c1ccccc1)C2` (stereo partly drawn) [Atropine sulfate], for which the AQP5-HiBiT luminescence is 0.888.

With `C[N+]1(C)CCCC(OC(=O)C(O)(c2ccccc2)c2ccccc2)C1` (stereo not drawn) [Mepenzolate Bromide], the AQP5-HiBiT luminescence was determined as 1.21.
